Measurements reported in PubChem BioAssay (NCI).
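Interpolation was linear, between the two tested concentrations surrounding the appropriate level; five concentrations were tested over 48 hours in 96-well plates. GI50 = concentration required for 50% inhibition of growth. TGI: concentration producing complete growth inhibition.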

System: NCI-H322M lung
Experiment: DTP human tumour cell line panel, 48 h

`CC1=C(CO)C2=C(C)C3(CC3)[C@@](C)(O)C(=O)C2=C1` showed a TGI of 0.567 µM.
`O=[N+]([O-])c1ccc(-c2cnc3ccccn23)cc1` was tested, and the TGI was greater than 100 µM.
Work on `COC(=O)C1=CN(CC2=CC(=O)C(C)=CC2=O)C=C(C(=O)OC)C1c1cccc(OC)c1` yielded a GI50 of 6.12 µM and a TGI of 13.3 µM.
With `COC(=O)c1ccc(-c2c(C#N)[n+](=O)c3cc(Cl)c(Cl)cc3n2[O-])cc1` the GI50 was 27.6 µM and the TGI was 73.9 µM.
`O=C1NC(N/N=C\C(O)C(O)C(O)C(O)CO)=N/C1=C/c1ccc(Cl)cc1` (stereo unspecified) was tested, and the TGI was greater than 100 µM.
In the case of `CN(C)c1ncnc2c1ncn2CCn1cnc2c(N(C)C)ncnc21`, the TGI is reported as greater than 100 µM.
With `Cn1c2c(c3ccccc31)CCN1C(=O)CN(C(=O)C3CCCCC3)CC21` (stereo unspecified) the TGI was greater than 100 µM.
With `COCOC1C=CCCCC2=CC(C)=C(CC1)O2` (stereo unspecified) the TGI was greater than 100 µM.
Molecule `CSc1nc(NC2OC(COC(C)=O)C(OC(C)=O)C(OC(C)=O)C2OC(C)=O)c(N=CC=Nc2c(NC3OC(COC(C)=O)C(OC(C)=O)C(OC(C)=O)C3OC(C)=O)nc(SC)n(C)c2=O)c(=O)n1C` (stereo unspecified) has a GI50 greater than 50 µM and a TGI greater than 100 µM.
Work on `COc1ccc(C[C@H]2COC(=O)[C@@H]2Cc2cccc(Br)c2)cc1OC` yielded a TGI greater than 100 µM.
For `CCOC(=O)c1nc2cc(F)c(N3CCOCC3)cc2[nH]c1=O`, the TGI was greater than 100 µM.
Work on `CN(C)CCC(=O)C(=Cc1ccc(O)cc1)C(=O)CCN(C)C` yielded a GI50 greater than 100 µM and a TGI greater than 100 µM.
In the case of `O=C1C=C(NCCOCCO)C(=O)c2c(O)ccc(O)c21`, the TGI is reported as 82.8 µM.
`COC(=O)/C=C\C(C#N)(C#N)N=Cc1cc(Br)cs1` gave a TGI of 29.4 µM.
In the case of `CCN(Cc1ccc(F)cc1)c1ccc(CO)c(Br)c1`, the GI50 is reported as 10.1 µM and the TGI is reported as 37.2 µM.
With `CN1CC[C@@H](c2c(O)cc(O)c3c(=O)cc(-c4ccc(C(F)(F)F)cc4Cl)oc23)[C@@H]1CO` the GI50 was 15.6 µM and the TGI was 60.4 µM.
For `Clc1nc(Cl)nc(Nc2cccc3ccccc23)n1`, the GI50 was greater than 100 µM and the TGI was greater than 100 µM.
Molecule `CC(C)(C)[Si](C)(C)Oc1ccc(C2CNC(=O)C23CCC(=O)N3Cc2ccccc2)cc1` (stereo unspecified) has a TGI of 41.8 µM.
`CC(C)=CCc1cc(O)cc2c1OC(C=C(C)C)C1=C2C(=O)C2=C(C1=O)S(=O)(=O)CCN2` (stereo unspecified) showed a GI50 of 3.82 µM and a TGI of 10.4 µM.
`CC(C)OC(=O)[C@H](C)NP(=O)(OC[C@H]1O[C@@H](n2ccc(=O)[nH]c2=O)[C@](C)(F)[C@@H]1O)Oc1ccccc1` (stereo partly specified) gave a GI50 greater than 100 µM and a TGI greater than 100 µM.
`O=C1NI(C#Cc2ccccc2)c2ccccc21` showed a TGI greater than 100 µM.
`COc1cccc2nc3c(C(=O)NCCN(C)C)cccc3cc12` was tested, and the TGI was 14 µM.
Molecule `CS(=O)(=O)c1ccc(-c2cc(-c3ccc(S(C)(=O)=O)cc3)[n+](-c3cc(-c4ccccc4)c([O-])c(-c4ccccc4)c3)c(-c3ccc(S(C)(=O)=O)cc3)c2)cc1` has a TGI greater than 100 µM.
For `COC(=O)C1=C(O)c2ccc(Cl)cc2S(=O)(=O)N1C`, the TGI was greater than 100 µM.
`C[C@]12CCC(=O)C=C1CC[C@@H]1C2CC[C@]2(C)Nc3[nH]ncc3CC12` (stereo partly specified) was tested, and the TGI was greater than 100 µM.
With `COc1cc(C2CC(c3cccc(Nc4ccncc4)c3)=NN2c2ccc(Cl)cc2)cc(OC)c1OC` (stereo unspecified) the GI50 was 1.45 µM and the TGI was 2.8 µM.
`Nc1ccccc1N=Cc1cc2cc([N+](=O)[O-])ccc2s1` gave a TGI of 46.4 µM.
`S=c1[nH]c2c(Cl)c(Cl)c(Cl)c(Cl)c2[nH]1` showed a TGI of 92.1 µM.
For `COc1ccc(C(C#N)NNC(=O)Cc2ccccc2)cc1OC` (stereo unspecified), the TGI was greater than 100 µM.
In the case of `O=C(O)c1ccc(C(=O)O)c2c(C(=O)O)ccc(C(=O)O)c12`, the TGI is reported as greater than 100 µM.
For `CCc1ccc(/C=C/c2ccc(O)c3ncccc23)[n+](C)c1`, the GI50 was 6.15 µM and the TGI was greater than 100 µM.
`CN(C)CCSc1cc(-c2ccccc2)c2ccccc2n1` gave a TGI of 32.3 µM.
Molecule `COc1ccc(/C=C2\c3cc(OC)c(OC)cc3CCN2C(=O)c2ccccc2)cc1OC` has a TGI greater than 100 µM.
For `COc1ccc(-c2nsc3c2NC(=O)CC3c2cccc(OC)c2)cc1` (stereo unspecified), the GI50 was 4.67 µM and the TGI was greater than 100 µM.
`C=C(C)C1CCC2(C)CC1c1c(c(C)cc3c1[nH]c1ccccc13)O2` (stereo unspecified) was tested, and the TGI was greater than 25 µM.
`O=[N+]([O-])c1cccc2ccc(N/N=C/c3ccccc3O)nc12` showed a GI50 greater than 100 µM and a TGI greater than 100 µM.
`CCOc1nnnc2nc[nH]c12` was tested, and the TGI was greater than 100 µM.
With `CC(C(=O)O)c1cccc(Oc2ccccc2)c1` (stereo unspecified) the GI50 was greater than 100 µM and the TGI was greater than 100 µM.
In the case of `BrCc1cccc(C[P+](c2ccccc2)(c2ccccc2)c2ccccc2)c1`, the GI50 is reported as greater than 100 µM and the TGI is reported as greater than 100 µM.
`COC(=O)[C@@]1(C)/C(=N/NS(=O)(=O)c2ccc(C)cc2)CCC[C@@H]1C` showed a TGI greater than 100 µM.
Work on `CS/C(=C(\S)c1ccccc1)c1ccccc1` yielded a TGI greater than 100 µM.
With `CCOC(=O)Cc1ccc(Nc2nc3ccccc3nc2C(=O)OCC)cc1` the TGI was greater than 100 µM.
`O=P1(c2ccccc2)Nc2ccccc2SSc2ccccc2N1` gave a TGI of 34 µM.
`Cc1ccc(Nc2oc(-c3ccccc3)nc2[P+](c2ccccc2)(c2ccccc2)c2ccccc2)cc1` gave a GI50 of 1.47 µM and a TGI of 4.02 µM.
`Cc1ccc(NC(=O)CCc2nnc(N)o2)cc1` gave a TGI greater than 100 µM.
`CC(=O)N(C)CCc1c[nH]c2ccccc12` was tested, and the TGI was greater than 100 µM.
In the case of `Oc1ccc(Nc2c3ccccc3nc3occ(Cl)c23)cc1`, the GI50 is reported as 5.69 µM and the TGI is reported as 76.7 µM.
Molecule `C=CCc1ccc(O)c(-c2ccc(O)c(CC=C)c2)c1` has a GI50 of 15 µM and a TGI of 31.1 µM.
With `CC1CCN(C(=O)OCc2nc3nc(Cl)nc(N4CCOCC4)c3[nH]2)CC1` the GI50 was 1.52 µM and the TGI was 2.94 µM.
With `CCOC(=O)NNC(=O)NCCCCNC(=O)NNC(=O)OCC` the TGI was greater than 100 µM.
`Nc1c(C(=O)c2ccccc2)cnn1-c1ccc(F)cc1` showed a GI50 greater than 25 µM and a TGI greater than 25 µM.
Molecule `Nc1ccn(C2OC(CO)C(O)C2O)c(=O)n1` (stereo unspecified) has a GI50 greater than 28.2 µM and a TGI greater than 500 µM.
`C[Si](C)(C)/C(I)=C/CO` showed a TGI of 84.3 µM.
With `CC(C)C(C/C=C1\CC(CO)(COC(=O)C(C)(C)C)OC1=O)C(C)C` (stereo unspecified) the TGI was 24.7 µM.
In the case of `CCCCCCCN=C(N)c1ccc(N2CCN(c3ccc(C(N)=NCCCCCCC)cc3)CC2)cc1`, the GI50 is reported as 0.871 µM and the TGI is reported as 7.92 µM.
`Cc1nc2cc(Nc3nc(Nc4ccc(F)cc4)nc(-c4cccs4)n3)ccc2n1Cc1ccccc1` gave a GI50 of 21.4 µM and a TGI of 85 µM.
Work on `O=C(CNS(=O)(=O)Cc1ccccc1)NNc1ccccc1` yielded a TGI greater than 100 µM.
For `O=C(NNC(=O)c1ccccc1O)c1cccc(Br)c1`, the TGI was greater than 100 µM.
`O=C(N(O)c1ccccc1Cl)C(O)(c1ccccc1)c1ccccc1` was tested, and the TGI was greater than 100 µM.
In the case of `Nc1n[nH]c(=O)c2c1c(I)cn2C1OC(CO)C(O)C1O` (stereo unspecified), the TGI is reported as greater than 100 µM.
With `CC(C)[Si]1(C(C)C)OCC2OC3(CO)C(Oc4nc(=O)ccn43)C2O[Si](C(C)C)(C(C)C)O1` (stereo unspecified) the TGI was 32.2 µM.
Molecule `O=c1oc2c/c(=C\c3ccc([N+](=O)[O-])cc3)c(=O)c3cccc1c3-2` has a TGI greater than 100 µM.
In the case of `CC(C)=CCC/C(C)=C/CC/C(C)=C/CC(CO)N(C)CC/C=C(\C)CCC=C(C)C` (stereo unspecified), the TGI is reported as 18.8 µM.
In the case of `COc1ccc(-c2cc(/C=C/C(=O)c3ccc(OC)c(OC)c3)[nH]n2)cc1`, the GI50 is reported as 1.62 µM and the TGI is reported as 4.92 µM.
`O=S(=O)(Nc1ccc(Cl)cc1Cl)c1ccc(-c2cnc(C3CC3)o2)cc1` gave a GI50 of 5.41 µM and a TGI greater than 92.3 µM.
In the case of `O=C(CSc1c2ccccc2nc2ccccc12)Nc1ccccc1-c1ccccc1NC(=O)CSc1c2ccccc2nc2ccccc12`, the TGI is reported as greater than 100 µM.
Work on `Cc1c2cccc-2c(OCCO)cc2c3ccccc3n(C)c12` yielded a TGI of 24.6 µM.
For `COc1cccc(C2c3cc4c(cc3OC(C)(N3CCCC3)C2C)OCO4)c1` (stereo unspecified), the TGI was greater than 100 µM.
`CN(C)CCCn1cnc2cc(Cl)c(Cl)cc21` was tested, and the TGI was greater than 100 µM.
`Cc1ccc2c(C3C(C#N)=C(N)Oc4cc5ccccc5cc43)cc(=O)oc2c1` (stereo unspecified) gave a GI50 of 5.49 µM and a TGI greater than 100 µM.
With `CC(=O)NNc1nc(-c2ccc([N+](=O)[O-])cc2)c(C#N)c(=O)n1C` the TGI was 55.7 µM.
`C=CCN(C(=O)CNC(=O)C(F)(F)F)c1cc(OCc2ccccc2)c2c(c1)c(C)cn2S(=O)(=O)c1ccccc1` was tested, and the TGI was greater than 100 µM.
`COC(=O)c1cc2c(s1)-c1nccc3c1c(nc1ccccc13)C2=O` was tested, and the GI50 was greater than 100 µM and the TGI was greater than 100 µM.
Molecule `CCOC(=O)/C=C(/C(=O)OCC)n1cnc2c(=O)[nH]c(NC(C)=O)nc21` has a TGI greater than 100 µM.
`Cn1cnnc1Sc1c([N+](=O)[O-])ncn1C` showed a TGI greater than 100 µM.
`COc1ccc2c(C(=O)c3cn(CCN4CCOCC4)c4ccccc34)cccc2c1` showed a TGI greater than 75.7 µM.
In the case of `CC1C=CN(N(C)C)C2=C1C(=O)c1cnccc1C2=O` (stereo unspecified), the TGI is reported as 2.21 µM.
With `Cn1c(Nc2ccc(C(F)(F)F)cc2)nc2cc(Oc3ccnc(-c4ncc(C(F)(F)F)[nH]4)c3)ccc21` the GI50 was 0.114 µM and the TGI was 15.7 µM.
